# Reference: the supplement of paper PMC9446081
# Among all 39,000 compounds or so, about 220 (0.56%) showed activity. Some of the results follow.
# System: Escherichia coli K-12 BW25113
# Test: relative growth (OD600 normalised to plate interquartile mean) (fraction); higher = less growth inhibition, active = 0.2 or less
# Details: 50 µM; LB; incubation time: overnight (16-24 h)
# 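Further: static incubation at 37 °C against the wild-type strain, values averaged over two biological replicates.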
row,Compound,relative growth
1,O=C(CCCCCC(=O)N/N=C/[C@@H](O)[C@@H](O)[C@H](O)[C@H](O)CO)NO,inactive: 0.971
2,[N-]=[N+]=NCCOCCNC(=O)CCCOc1ccc(CS(=O)c2nnc(-c3ccc(F)cc3)o2)nc1 (configuration not stated),inactive: 0.95
3,C[C@@H]1CCCCO[C@@H](CN(C)CC2CC2)[C@@H](C)CN([C@H](C)CO)C(=O)c2cc(NC(=O)Nc3ccc(C(F)(F)F)cc3)ccc2O1,inactive: 0.968
4,CCS(=O)(=O)Nc1ccc2c(c1)C(=O)N(C)C[C@H](OC)[C@@H](C)CN(CCC(F)(F)F)[C@H](C)CO2,inactive: 0.991
5,O=C(O)C[C@H]1NC(=O)c2ccccc21,inactive: 1.02
6,C[C@H](CO)N1C[C@H](C)[C@@H](CN(C)S(=O)(=O)c2cccs2)Oc2ccc(NS(=O)(=O)c3cccs3)cc2CC1=O,inactive: 1.04
7,CCNC(=O)C[C@H]1CC[C@H](NC(=O)C2CCOCC2)[C@H](CO)O1,inactive: 0.988
8,C[C@@H]1CN([C@H](C)CO)C(=O)c2cc(NS(=O)(=O)c3ccc(Cl)cc3)ccc2O[C@H]1CN(C)C(=O)Nc1cccc2ccccc12,inactive: 0.991
9,Cc1cc(C)n(-c2n[nH]c(=S)n2N)n1,inactive: 1
10,Nc1ncnc2c1ncn2[C@@H]1O[C@@H]2CO[P@@](=O)(S)O[C@@H]3[C@H](O)[C@@H](CO[P@@](=O)(S)O[C@H]2[C@H]1O)O[C@H]3n1cnc2c(N)ncnc21,inactive: 1.04
11,C[C@@H]1CCCCO[C@H](CN(C)C(=O)Nc2ccc(F)cc2)[C@H](C)CN([C@@H](C)CO)C(=O)c2cc(NC(=O)C3CCCCC3)ccc2O1,inactive: 1
12,C[C@@H]1CCCCO[C@H](CN(C)S(C)(=O)=O)[C@H](C)CN([C@@H](C)CO)C(=O)c2cc(NC(=O)CCCN(C)C)ccc2O1,inactive: 1
13,C[C@@H]1CCCCO[C@H](CN(C)C(=O)Nc2ccc3c(c2)OCO3)[C@H](C)CN([C@H](C)CO)C(=O)c2cc(NC(=O)CCC(F)(F)F)ccc2O1,inactive: 1
14,CN(C)C(=O)CN1CCC2(CC1)CN(c1cncnc1)C(=O)CO2,inactive: 1.01
15,COc1ccc(S(=O)(=O)N(C)C[C@H]2Oc3ccc(NC(=O)Nc4cccc5ccccc45)cc3C(=O)N([C@@H](C)CO)C[C@@H]2C)cc1,inactive: 1.01
16,CCCNC(=O)N1CC[C@]2(CC1)CN([C@H](CO)c1[nH]c3cc(ccc3c12)OC)C(=O)CN1CCOCC1,inactive: 0.884
17,C[C@@H]1CCCCO[C@@H](CN(C)C(=O)CCC(F)(F)F)[C@H](C)CN([C@H](C)CO)C(=O)c2cc(NS(=O)(=O)c3ccc(F)cc3)ccc2O1,inactive: 1.01
18,CCCNC(=O)c1cc2c(c(-c3cccc(-c4cccc(F)c4)c3)n1)[C@@H](CCO)N([S@](=O)C(C)(C)C)C2,inactive: 0.964
19,Cc1ccc(S(=O)(=O)Nc2ccc3c(c2)C(=O)N([C@H](C)CO)C[C@H](C)[C@H](CN(C)C(=O)Nc2ccc(F)cc2)OCCCC[C@@H](C)O3)cc1,inactive: 1.03

row,Compound,relative growth
1,C[C@@H](CCO)Nc1nc2c([nH]1)c(=O)n(C)c(=O)n2C,inactive: 1.02
2,C[C@@H]1CN([C@@H](C)CO)C(=O)c2cc(NS(=O)(=O)c3ccc(Cl)cc3)ccc2O[C@@H](C)CCCCO[C@H]1CN(C)C(=O)CCC(F)(F)F,inactive: 0.98
3,COc1ccc(S(=O)(=O)Nc2ccc3c(c2)C(=O)N([C@H](C)CO)C[C@@H](C)[C@@H](CN(C)C(=O)NC2CCCCC2)OCCCC[C@H](C)O3)cc1,inactive: 0.986
4,COC(=O)C(CC#Cc1ccc2c(c1)[C@]1(C(=O)N2)[C@H](c2ccc(O)cc2)N2[C@H](c3ccccc3)[C@H](c3ccccc3)OC(=O)[C@H]2[C@@H]1C(=O)N1CCCCCCC1)C(=O)OC,inactive: 1.04
5,C[C@@H]1CN([C@H](C)CO)C(=O)c2cc(NC(=O)c3ccncc3)ccc2O[C@@H]1CN(C)C(=O)Nc1ccc2c(c1)OCO2,inactive: 0.978
6,Cc1cccc(S(=O)(=O)N2C[C@H](O)COC[C@H]3O[C@@H](CC(=O)NCCCN4CCOCC4)CC[C@@H]32)c1,inactive: 1
7,C[C@@H]1CN([C@@H](C)CO)C(=O)c2cccc(NC(=O)c3ccncc3)c2O[C@@H]1CN(C)S(=O)(=O)c1ccc(F)cc1,inactive: 0.998
8,C[C@H]1CCCCO[C@@H](CN(C)C(=O)Nc2cccc3ccccc23)[C@@H](C)CN([C@@H](C)CO)C(=O)c2cc(NC(=O)C3CCCCC3)ccc2O1,inactive: 1.03
9,Cc1nc(=O)c(C#N)c(NCc2cccnc2)[nH]1,inactive: 0.989
10,COCCOC(=O)N1C(=O)[C@@]2(c3cc(C#CCNC(N)=O)ccc31)[C@H](C(=O)N1CCCCCCC1)[C@H]1C(=O)O[C@H](c3ccccc3)[C@H](c3ccccc3)N1[C@@H]2c1ccccc1OCCO,inactive: 1.02
11,C[C@@H]1CN([C@H](C)CO)C(=O)c2ccccc2-c2ccccc2CO[C@@H]1CN(C)Cc1ccc(Cl)c(Cl)c1,inactive: 0.995
12,C[C@@H]1CN([C@H](C)CO)C(=O)Cc2cc(NS(=O)(=O)c3ccc(Cl)cc3)ccc2O[C@H]1CN(C)S(=O)(=O)c1cn(C)cn1,inactive: 0.98
13,Cc1noc(C)c1NC(=O)N(C)C[C@H]1Oc2ccc(NC(=O)NC(C)C)cc2C(=O)N([C@@H](C)CO)C[C@H]1C,inactive: 0.986
14,C[C@@H]1CN([C@@H](C)CO)C(=O)c2cc(NC(=O)Cc3cn(C)c4ccccc34)ccc2O[C@@H]1CN(C)CC1CCCCC1,inactive: 0.948
15,Cc1noc(C)c1NC(=O)N[C@@H]1C=C[C@@H](CC(=O)NCCCN(C)C)O[C@H]1CO,inactive: 0.963
16,COc1ccccc1CNC(=O)C[C@@H]1CC[C@H]2[C@@H](COC[C@H](O)CN2C(=O)Nc2ccc(F)cc2)O1,inactive: 1.01
17,C[C@@H]1CCCCO[C@H](CN(C)Cc2ccc3c(c2)OCO3)[C@@H](C)CN([C@H](C)CO)C(=O)c2cc(NC(=O)Nc3cccc4ccccc34)ccc2O1,inactive: 0.98
18,CN[C@@H]1[C@H](O)[C@H](NC)[C@H]2O[C@@]3(O)C(=O)C[C@@H](C)O[C@H]3O[C@@H]2[C@H]1O,active: 0.0458
